Values joined by “and” are separate entries in the source; they are usually repeats but may differ in a detail not shown here. Identical values can stand only once. About 64,000 (15%) of roughly 420,000 compounds were called active. Inconclusive results, whose numbers are uncertain, are shown with a selection of clear calls. Calls come from the whole dose curve; as a rule, active = well fitted inhibition curve with a large enough effect; inconclusive = small, poorly fitted or top-dose-only effect; inactive = flat fitted curve, though single readings scatter. Potencies of inconclusive entries are left out as doubtful fits.
test: qHTS for Inhibitors of human tyrosyl-DNA phosphodiesterase 1 (TDP1): qHTS in cells in absence of CPT; conditions: DT40 Tdp1-/- hTDP1 cells, no CPT, ATP luminescence, 48 h; activity change, negative = growth inhibition: at 46.2 µM (top of the series) unless noted; note: nearly all actives have a fitted effect of over 55% in size
Method in brief: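 A cellular qHTS used chicken DT40 cells lacking endogenous Tdp1 but carrying stably transfected human TDP1. Compounds were applied without camptothecin, and cell growth kinetics were judged by ATP-dependent luminescence after ≥48 hr.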
% is set by controls: 0 for no effect and ±100 for the full control effect; potency is the fitted concentration of half-maximal effect; tags give direction and shape of the fitted curve.

Compound	Potency	activity change, negative = growth inhibition
C=C1CCC2C(C)(C)[C@H](O)CC[C@@]2(C)[C@@H]1COc1cc(=O)oc2ccccc12 (stereo not given in full)	inconclusive [inhibitor, single point]	–
O=C(Nc1cccc(C(=O)OCc2cc(=O)n3nc(C4CC4)sc3n2)c1)c1ccc(F)cc1	inactive	–
COCC(C)NC(=S)NCCc1ccc(Cl)cc1Cl (stereo not given)	inconclusive [inhibitor, single point]	–
NCc1csc(Nc2ccc(C(=O)c3ccccc3)cc2)n1	active: 1.03 µM	–
O=C(CN1Cc2ccccc2C1=O)Nc1ccc2c(c1)OCCO2	inactive	–
CCCC(=O)NC1CC(=O)N(c2ccc3c(c2)OCCO3)C1 (stereo not given)	inactive	–
Cc1csc2nc(CNS(=O)(=O)c3ccc4c(c3)OCCO4)cn12	inconclusive [inhibitor, single point]	–
CCN(CC)CCN(Cc1cc2ccc(C)c(C)c2[nH]c1=O)C(=S)NCc1ccco1	inconclusive [inhibitor, single point]	–
CC(NCC(c1ccco1)N1CCCCC1)C(=O)NC1CCCC1 (stereo not given)	inconclusive [inhibitor, single point]	–
COc1ccc(OCC(=O)N2CCC(n3nccc3NC(=O)C3CC3)CC2)cc1	inactive	–
COc1ccc(OC)c(NC(=O)C2(C)CCN2C(=O)Cc2ccc(Cl)cc2Cl)c1 (stereo not given)	active: 18.4 µM	–
CCCc1[nH]n(-c2nc3ccccc3s2)c(=O)c1C=NCC1CCCO1 (stereo not given)	inconclusive [inhibitor, single point]	–
COc1ccc(S(=O)(=O)Nc2ccc(O)c(Sc3nc4ccccc4s3)c2)cc1	inconclusive [inhibitor, partial curve, poor fit]	–
O=C(Nc1cccc(Cl)c1)N1Cc2ccccc2Oc2ncccc21	inconclusive [inhibitor, single point]	–
COc1ccc(OC)c(-c2c(=O)n(OCc3ccccc3Br)c3ccccc3[n+]2[O-])c1	active: 23.1 µM	–
COc1ccc(S(=O)(=O)N2CC3CCCN3c3ccc(C(F)(F)F)cc32)cc1 (stereo not given)	inconclusive [inhibitor, single point]	–
Cc1ccnc(N(C(=O)Nc2ccccc2)C2=NCC(C)(C)S2)c1	inactive	–
C1CCN(CC2CCCCN2)CC1 (stereo not given)	inactive	–
Cc1c(C(=O)N(C)C)sc2c1c(=O)n(-c1ccc(Cl)c(Cl)c1)c(=O)n2Cc1ccc(F)cc1	inconclusive [inhibitor, partial curve]	–
CC1(C)CC(=O)c2cnn(-c3nc4ccccc4[nH]3)c2C1	inconclusive [inhibitor, single point]	–
Nc1c(O)ccc2c1C(=O)c1ccccc1C2=O	inconclusive [inhibitor, single point]	–
O=C(/C=C/c1ccc(S(=O)(=O)NCc2ccco2)cc1)NCc1cccc(Cl)c1	inconclusive [inhibitor, single point]	–
Cc1cc(=O)oc2cc(OCC(=O)NCCc3nc4ccccc4[nH]3)ccc12	inactive	–
COc1ccc(N(CCCN2C(=O)c3cccc4cccc(c34)C2=O)C(=O)c2cccs2)cc1	inconclusive [inhibitor, single point]	–
CN(C(=S)NC(=O)c1ccccc1)C1CCCCC1	inconclusive [inhibitor, single point]	–

Compound	Potency	activity change, negative = growth inhibition
Cc1ccc(C(C)C)c(OCC(=O)Nc2ccc3c(c2)nc(CCN2CCCCC2)n3C)c1	inconclusive [inhibitor, single point]	–
COc1ccc(S(=O)(=O)N(C)C)cc1NC(=O)CN1CCN(C(=O)C2CC2)CC1	inconclusive [inhibitor, single point]	–
COc1ccc(NC(=O)CN(C)C(=O)c2ccc(NC3CC3)c([N+](=O)[O-])c2)cc1	inactive	–
CCCCc1c(-c2ccc(OC)c(OC)c2)ncn1CCc1ccccc1OC	active: 5.8 µM	–
Cc1cc(C(=O)COC(=O)c2ccc(O)cc2)c(C)n1Cc1ccco1	inconclusive [inhibitor, single point]	–
CCOc1c(Br)cc(C2NS(=O)(=O)N=C3CCCCCN32)cc1OC (stereo not given)	active: 16.4 µM	–
Cn1c(CNc2ccc(Cl)cc2)nc2ccccc21	–	inconclusive: -30.9% [inhibitor]
N#Cc1ccccc1COc1cccc2c1CCCC2O (stereo not given)	active: 14.6 µM	–
CCOC(=O)C1CCc2c(ccc3ccccc23)N1CCC#N (stereo not given)	inconclusive [inhibitor, single point]	–
C/C(=N\NC(=O)c1cc(-c2ccccc2C)nc2ccccc12)c1cccnc1	inconclusive [inhibitor, single point]	–
CCCNC(=O)C1(C)CCCN(Cc2ccccc2C#N)C1 (stereo not given)	inconclusive [inhibitor, single point]	–
O=C(O)c1cccc(NC(=O)c2cn(-c3ccccc3)nc2-c2cc3ccccc3o2)c1	inconclusive [inhibitor, single point]	–
CCC(C)Nc1cc(C)c(C#N)c2nc3ccccc3n12 (stereo not given)	inconclusive [inhibitor, single point]	–
CCn1ncc(CN2CCCC(C(=O)Nc3cccc(-c4cc5ccccc5[nH]4)c3)C2)c1C (stereo not given)	inconclusive [inhibitor, single point]	–
O=c1cc(-c2cccc(O)c2O)oc2ccccc12	inconclusive [inhibitor, partial curve, poor fit]	–
O=C(NCCc1ccccc1)C(=O)NCCC1CCCCN1S(=O)(=O)c1cccs1 (stereo not given)	inconclusive [inhibitor, single point]	–
CC(C)c1ccc(O)c(N)c1	inconclusive [inhibitor, partial curve]	–
Cc1cc(Br)cn2c(Cc3ccccc3)c(-c3ccc(Cl)cc3)nc12	inactive	–
CCOc1ccc(N(C(=O)c2snc(C(N)=O)c2N)C(C(=O)NCC2CCCO2)c2c[nH]c3ccccc23)cc1 (stereo not given)	active: 3.66 µM	–
Cc1ccc(-c2csc(N3CCN(S(=O)(=O)c4ccc5c(c4)NC(=O)CO5)CC3)n2)cc1	inactive	–
Cc1cc(-n2c(C)cc(C(=O)CSc3nncn3C)c2C)no1	inconclusive [inhibitor, single point]	–
O=C(Nc1ccccn1)C1(c2ccccc2)CCCC1	inconclusive [inhibitor, single point]	–
Cc1cnccc1CN(C)Cc1nc(Cc2ccccc2Cl)no1	active: 14.6 µM	–
CCCCN(C1CCS(=O)(=O)C1)S(=O)(=O)c1cccs1 (stereo not given)	inactive	–
CN(C(=O)CSc1nc2ccc(NC(=O)c3ccc(F)cc3)cc2s1)c1ccccc1	active: 14.6 µM	–

Compound	Potency	activity change, negative = growth inhibition
Nc1cc2nsnc2cc1Br	active: 5.8 µM	–
Cc1cccc(C)c1-n1nnnc1C1(C)CCC(=O)N1CC1CCCCC1 (stereo not given)	inconclusive [inhibitor, partial curve]	–
Cc1cc(NS(C)(=O)=O)c(=O)n(Cc2c(F)cccc2Cl)c1	inactive	–
CCOC(=O)C1(CCOc2ccccc2)CCN(Cc2cccn2-c2ncccn2)CC1	inconclusive [inhibitor, partial curve]	–
COc1ccc(C(=O)Nc2cccnc2)cc1OC	–	inconclusive: -33.3% [inhibitor]
O=C(NCc1cccc(C(F)(F)F)c1)c1cccc2c1C(=O)c1ccc(N3CCC(Cc4ccccc4)CC3)cc1S2(=O)=O	active: 7.31 µM	–
CC(=O)c1cc(C#N)c(N2CCCC2)nc1C	inactive	–
NC(c1ccccc1)c1csc(NC(=O)NCC2CCCCC2)n1 (stereo not given)	inactive	–
Cc1ccc(C(=O)CC(=O)c2ccc(C)cc2O)cc1	active: 18.4 µM	–
Cc1ccccc1CCNC(=O)c1cc2ccccn2n1	inconclusive [inhibitor, single point]	–
O=C1[C@H](Cc2ccccc2)NCCCC[C@@H](c2ccc(Cl)cc2)N1Cc1ccccc1	active: 13 µM	–
COCCn1c(=O)c(C)nc2cnc(OC)nc21	inactive	–
O=C(Cc1c(Cl)cccc1Cl)Nc1ccc(S(=O)(=O)Nc2ncccn2)cc1	inactive	–
Cc1cc[n+](-c2nc([O-])sc2/C=N/Nc2ccc([N+](=O)[O-])cc2)cc1	inactive	–
O=c1c(-c2ccc(O)cc2)coc2cc(O)cc(O)c12	active: 18.4 µM and active: 11.9 µM	–
O=C(/C(C=Nc1cc2c(oc1=O)CCCC2=O)=C(\O)c1ccccc1)c1ccccc1	inconclusive [inhibitor, single point]	–
COc1ccc(N=C2NC(=O)/C(=C\c3ccco3)S2)cc1	–	inconclusive: -35.1% [inhibitor]
COc1ccc(OC)c(CCNC(=O)Cn2nc(C)c3c(C)n(-c4ccccc4)nc3c2=O)c1	inactive	–
CC12CC3CC(C)(C1)CC(C(=O)N1CCCC1)(C3)C2	inconclusive [inhibitor, single point]	–
CC(NC(=O)C1CCOCC1)c1nnc2n1CCN(Cc1cc3c(cc1Cl)OCO3)CC2 (stereo not given)	inactive	–
CCOC(=O)c1c(CSc2ccc(C)cc2)n(C)c2cc(Br)c(O)c(CN(C)C)c12	active: 8.2 µM	–
CCC(C)C(NC(=O)C1CCC(C)CC1)C(=O)NC(C(=O)OC)C(C)C (stereo not given)	inconclusive [inhibitor, full curve, poor fit]	–
Nc1cccc(C(=O)OCC(=O)c2ccccc2)c1	inactive	–
COc1ccccc1-c1nnc(NC(=O)CCS(=O)(=O)c2ccc(F)cc2)o1	active: 9.2 µM	–
CC1=NN(C(=O)c2ccccc2)C(O)(c2ccc(Br)cc2)C1 (stereo not given)	inconclusive [inhibitor, single point]	–
